Out of some 350,000 compounds screened, about 31,000 (8.9%) were called active. The shares of active, inactive and inconclusive entries below differ from those in the screen. Calls follow the shape of the dose curve; as a rule, active = well fitted inhibition curve with a large enough effect; inconclusive = small, poorly fitted or top-dose-only effect; inactive = no such curve, though single readings can be large or run the other way. A potency beside an inconclusive call is a rough fit, not a confirmed value.
target: Histone-lysine N-methyltransferase EHMT2 (Homo sapiens) (UniProt Q96KQ7); assay: qHTS Assay for Inhibitors of Histone Lysine Methyltransferase G9a; conditions: G9a H3K9 monomethylation, AlphaScreen, 2 h; activity, negative = inhibition: at 59 µM (top of the series) unless noted; also: nearly all actives have a fitted effect of over 75% in size
Sequence of UniProt Q96KQ7 (Q96KQ7 whole entry, looked up): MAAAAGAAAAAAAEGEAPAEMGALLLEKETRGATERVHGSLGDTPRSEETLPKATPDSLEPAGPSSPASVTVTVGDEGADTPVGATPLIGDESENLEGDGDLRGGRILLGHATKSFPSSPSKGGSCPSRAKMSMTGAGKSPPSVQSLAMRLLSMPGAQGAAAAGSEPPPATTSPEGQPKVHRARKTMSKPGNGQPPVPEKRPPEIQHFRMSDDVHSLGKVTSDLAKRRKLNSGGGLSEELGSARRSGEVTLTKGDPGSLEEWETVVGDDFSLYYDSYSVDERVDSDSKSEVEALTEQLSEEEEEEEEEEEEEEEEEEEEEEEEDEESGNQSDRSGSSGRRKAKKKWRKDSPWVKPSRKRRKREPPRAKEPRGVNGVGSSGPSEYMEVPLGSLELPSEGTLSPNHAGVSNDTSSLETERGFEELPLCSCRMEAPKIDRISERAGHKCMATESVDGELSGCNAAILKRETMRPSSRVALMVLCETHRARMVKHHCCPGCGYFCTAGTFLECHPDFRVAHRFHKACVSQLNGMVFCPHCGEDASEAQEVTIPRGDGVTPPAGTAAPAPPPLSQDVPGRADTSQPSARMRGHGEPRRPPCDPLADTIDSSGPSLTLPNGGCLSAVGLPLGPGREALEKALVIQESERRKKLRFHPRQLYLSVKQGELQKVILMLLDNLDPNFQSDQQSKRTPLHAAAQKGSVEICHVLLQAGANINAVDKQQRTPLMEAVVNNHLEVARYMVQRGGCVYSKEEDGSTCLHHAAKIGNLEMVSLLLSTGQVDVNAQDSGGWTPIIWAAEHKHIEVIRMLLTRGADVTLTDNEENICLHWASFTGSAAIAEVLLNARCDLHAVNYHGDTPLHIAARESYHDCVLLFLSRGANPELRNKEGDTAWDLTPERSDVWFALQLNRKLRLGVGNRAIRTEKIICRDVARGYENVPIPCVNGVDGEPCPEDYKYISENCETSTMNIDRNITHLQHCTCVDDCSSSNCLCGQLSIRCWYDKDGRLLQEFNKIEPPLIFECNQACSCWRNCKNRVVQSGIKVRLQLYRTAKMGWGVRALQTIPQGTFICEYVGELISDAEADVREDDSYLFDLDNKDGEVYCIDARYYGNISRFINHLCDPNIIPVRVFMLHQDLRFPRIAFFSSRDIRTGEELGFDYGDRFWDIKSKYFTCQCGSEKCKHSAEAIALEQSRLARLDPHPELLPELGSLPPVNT
In short: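 Using a bead-based AlphaScreen, monomethylated H3K9 product from 2 h room-temperature reactions (G9a 20 nM, peptide 500 nM, SAM 20 uM) was detected with 0.5 ug/mL rabbit anti-H3K9me1 antibody.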
% is scaled to controls: 0 for no effect and ±100 for the full control effect; potency is read from the fitted curve at half-maximal effect; tags tell the direction and shape of the fitted curve.

Structure (SMILES) | Potency | activity, negative = inhibition
Cc1ccc(OCC(=O)Nc2ccc(C)c(S(=O)(=O)N3CCCCC3)c2)c([N+](=O)[O-])n1 | inconclusive: 89.1 µM [inhibitor, partial curve, poor fit] | –
Cc1ccsc1/C=C\C1=NCCCN1C | inactive | –
COc1cc(/C=N/NC(=O)CCN2CCN(Cc3ccccc3)CC2)cc(OC)c1OC | inactive | –
CCCN(C(=O)C1CSC2(C)CCC(=O)N12)c1c(N)n(Cc2ccccc2)c(=O)[nH]c1=O (stereo not drawn) | inconclusive: 50.1 µM [inhibitor, partial curve, poor fit] | –
CC1CCCCC1NC(=O)CCn1c(=O)sc2ccccc21 (stereo not drawn) | inconclusive: 79.4 µM [inhibitor, partial curve, poor fit] | –
COc1ccccc1-c1nc2c(c(SCC(=O)N3CCCCC3)n1)Cc1c(CO)cnc(C)c1O2 | – | inconclusive: -109% [inhibitor]
CSc1nc2ccc(Br)cc2[nH]1 | inconclusive: 35.5 µM [inhibitor, partial curve, poor fit] | –
Cc1ccc(SC(C)C(=O)NCc2ccncc2)cc1 (stereo not drawn) | inconclusive: 70.8 µM [inhibitor, partial curve, poor fit] | –
COc1cc2cc(CN(CCc3cccc(C)c3)C(=S)NCCCN(C)C)c(=O)[nH]c2cc1OC | inactive | –
O=C(NCCOC(=O)c1ccccc1)c1ccccc1 | – | inactive: -3.94% [at 2.33 µM]
CCOC(=O)Cn1cc(C(=O)c2ccco2)c2ccccc21 | inconclusive: 50.1 µM [inhibitor, partial curve] | –
CCOC(=O)C1=C(N)N2C(=O)CSC2=C(C(=O)OC)C1 | active: 50.1 µM | –
CC1(C)Cc2ccccc2-c2nnc(-c3ccc4ccccc4n3)n21 | inactive | –
Cc1ccc(NC(=O)COC(=O)COc2ccc(Cl)cc2)c([N+](=O)[O-])c1 | inconclusive: 31.6 µM [inhibitor, single point] | –
Oc1ccc2[nH]cnc2c1CN1CCCCC1 | active: 5.62 µM | –
Fc1ccc(CSc2ccc(-c3cccs3)nn2)cc1 | inconclusive: 25.1 µM [inhibitor, partial curve, poor fit] | –
CN(C)Cc1nc2c([nH]1)c(=O)n(C)c(=O)n2C | inconclusive: 39.8 µM [inhibitor, partial curve, poor fit] | –
O=C(CCC(=O)CCN1CCCCC1)CCN1CCCCC1 | active: 12.6 µM | –
CCOC(=O)C(=NCC1CCCO1)NNc1cc(Cl)ccc1Cl (stereo not drawn) | active: 35.5 µM | –
COc1ccc(S(=O)(=O)N2CCCCCC2)cc1NC(=O)CCCOc1ccccc1 | – | inactive: -9.79% [at 12.7 µM]
O=C(OCCN1CCOCC1)c1ccc(OCCN2CCOCC2)cc1 | active: 50.1 µM | –
CCCC1=NN2C(=N)/C(=C\c3ccc(SCc4ccco4)o3)C(=O)N=C2S1 | active: 8.91 µM | –
COc1cccc(CNC(=O)c2nc(Cn3nc(C)c(Br)c3C)no2)c1 | inconclusive: 3.98 µM [inhibitor, partial curve, poor fit] | –

Structure (SMILES) | Potency | activity, negative = inhibition
COc1ccc(C(=O)N/N=C/c2sc(=O)n(Cc3cccc(C(=O)O)c3)c2Cl)cc1 | inconclusive: 79.4 µM [inhibitor, single point] | –
CCCCCSc1nc(C)c(CC(=O)O)c(=O)[nH]1 | inconclusive: 31.6 µM [inhibitor, single point] | –
CC(C)C(NC(=O)c1c(F)cccc1F)C(=O)NCc1ccncc1 (stereo not drawn) | inactive | –
Cc1cc(C)c2c(c1)/C(=C/C(=O)c1ccc(Br)s1)C(=O)N2 | inconclusive: 31.6 µM [inhibitor, single point] | –
O=C(NCc1n[nH]c(=S)n1-c1ccccc1Cl)c1ccc(S(=O)(=O)N2CCCCC2)cc1 | active: 10 µM | –
CCn1c(SCC(=O)N(C)CCC#N)nc2cc(S(=O)(=O)N3CCOCC3)ccc21 | inconclusive: 35.5 µM [inhibitor, partial curve] | –
Cc1ccc(NC(=O)C2C3C=CC4(O3)C2C(=O)N(CCCN2CCCC2)C4C(=O)NC2CCCCC2)cc1Cl (stereo not drawn) | inconclusive: 79.4 µM [inhibitor, single point] | –
N#Cc1cc([N+](=O)[O-])cnc1NCC(O)CO (stereo not drawn) | inconclusive: 89.1 µM [inhibitor, single point] | –
Cc1cc(C)c(OCC(=O)OC(C)C(=O)NCc2ccccc2)c(C)c1 (stereo not drawn) | inconclusive: 31.6 µM [inhibitor, partial curve] | –
COC(=O)C(NC(=O)c1ccccc1C)(Nc1ncc(S(=O)(=O)c2ccc([N+](=O)[O-])cc2)s1)C(F)(F)F (stereo not drawn) | – | inconclusive: -64.3% [inhibitor]
COc1ccccc1C(=O)Nc1nnc2n1CCS2 | active: 11.2 µM | –
O=C1CN(C(=O)COC(=O)CNC(=O)c2ccc(Br)o2)c2ccccc2N1 | inactive | –
Cc1ccc(-n2c(SCC(=O)NCc3ccco3)nc3nc4c(cc3c2=O)COC(C)(C)C4)cc1 | inconclusive: 50.1 µM [inhibitor, partial curve, poor fit] | –
Cc1ccc(S(=O)(=O)NC(=O)Nc2ccccc2F)cc1 | inconclusive: 39.8 µM [inhibitor, single point] | –
CCOc1ccc(N/C=C/C(=O)c2ccccc2)c([N+](=O)[O-])c1 | active: 8.91 µM | –
COc1cc(O)c(C(CCN2CCOCC2)c2ccc(N(C)C)cc2)c(OC)c1 (stereo not drawn) | – | inconclusive: -73.4% [inhibitor]
CCOC(=O)c1sc(N)c(C#N)c1COC(=O)CNC(=O)c1cc(OC)c(OC)c(OC)c1 | inconclusive: 89.1 µM [inhibitor, partial curve, poor fit] | –
CNC(=O)/C(C#N)=C/c1cn(CC(=O)OC)c2ccccc12 | inactive | –
CCCCN(C(=O)CCCSc1nc2ccccc2[nH]1)c1c(N)n(Cc2ccccc2)c(=O)[nH]c1=O | active: 10 µM | –
CCN(CC)C(=O)c1ccc(/C=C/c2c[nH]c3ccccc23)[n+](C)c1 | active: 3.16 µM | –
CC(C)Cn1c(=S)[nH]c2cc(C(=O)O)ccc2c1=O | inconclusive: 39.8 µM [inhibitor, single point] | –
Cc1cc(Nc2ccc(Br)cc2F)n2nc(C)nc2n1 | inconclusive: 39.8 µM [inhibitor, single point] | –
CCSc1nnc2c(n1)OC(c1ccc(OC)c(OC)c1)N(C(C)=O)c1ccccc1-2 (stereo not drawn) | inactive | –

Structure (SMILES) | Potency | activity, negative = inhibition
CCn1c(C(=O)OC)cc2c1ccn2-c1ccc(F)cc1 | – | inconclusive: -64.2% [inhibitor]
CCOC(=O)c1ccc(-c2ccc(/C=N/NC(=O)CN(c3ccccc3Br)S(C)(=O)=O)o2)cc1 | inconclusive: 10 µM [inhibitor, partial curve] | –
C/C(=C/c1ccccc1)C(=O)N1CCN(c2ccccc2F)CC1 | inconclusive: 39.8 µM [inhibitor, single point] | –
COc1cc(/C=N/n2c(C3CCCCC3)n[nH]c2=S)ccc1O | active: 3.55 µM | –
Cc1ccc(-c2noc(CSc3nnc(C)n3-c3ccc(C)c(C)c3)n2)cc1 | inconclusive: 25.1 µM [inhibitor, partial curve, poor fit] | –
CCOC(=O)N1CCc2c(sc3nc4n(c(=O)c23)N=C(C)CS4)C1 | inconclusive: 25.1 µM [inhibitor, single point] | –
Cc1cccc(NC(=O)CSCC(=O)Nc2cccc3ncccc23)c1 | inconclusive: 50.1 µM [inhibitor, partial curve] | –
Cc1cccc(C)c1NC(=O)[C@H](C)N | inactive | –
Cc1ccc(-c2nnc3c4ccccc4c(C)nn23)cc1NC(=O)CN1CCOCC1 | inconclusive: 0.251 µM [inhibitor, partial curve, poor fit] | –
COc1ccc(C2=Nn3c(nnc3-c3ccccn3)SC2)cc1OC | inconclusive: 79.4 µM [inhibitor, single point] | –
Cc1cccc(Oc2ccc(NC(=O)c3ccccc3C(=O)O)cc2)c1C | inconclusive: 70.8 µM [inhibitor, partial curve, poor fit] | –
CCOc1ccc(-c2cc(C(=O)Nc3ccc4c(c3)OCCO4)c3ccccc3n2)cc1 | inconclusive: 1.41 µM [inhibitor, partial curve, poor fit] | –
COc1ccccc1CCNS(=O)(=O)c1c(C)n(C)c(=O)n(C)c1=O | inconclusive: 28.2 µM [inhibitor, full curve, poor fit] | –
CCOc1ccc(C2C(C(=O)c3ccc(C)o3)=C(O)C(=O)N2CCN2CCOCC2)cc1OC (stereo not drawn) | active: 17.8 µM | –
Cc1ccc(C(=O)CNc2cccc([N+](=O)[O-])c2)cc1 | inconclusive: 44.7 µM [inhibitor, partial curve, poor fit] | –
O=C(NNS(=O)(=O)c1ccc(Cl)cc1)c1cccc(S(=O)(=O)N2CCOCC2)c1 | – | inconclusive: -94.5% [inhibitor]
COc1cccc(CNS(=O)(=O)c2c(C(=O)N3CCC(C)CC3)c(C)n(C)c2C)c1 | inactive | –
COC(=O)c1ccc(C)c(NC(=O)COC(=O)C2CC3CCCC(C2)C3=O)c1 (stereo not drawn) | inconclusive: 35.5 µM [inhibitor, partial curve, poor fit] | –
Cc1cccc2cc(COC(=O)c3cccnc3)c(=O)[nH]c12 | inconclusive: 79.4 µM [inhibitor, single point] | –
Cc1ccccc1NC(=S)NCCc1ccccc1 | inconclusive: 0.447 µM [inhibitor, full curve, poor fit] | –
O=C(Cn1nnc(-c2ccc([N+](=O)[O-])cc2)n1)NNC(=O)c1ccccc1 | inactive | –
CCOc1ccc(S(=O)(=O)Nc2ccc3oc4c(c3c2)CC(C)CC4)cc1 (stereo not drawn) | inconclusive: 12.6 µM [inhibitor, partial curve] | –

— PubChem BioAssay AID504332 (National Center for Advancing Translational Sciences (NCATS), 2011)
